# Laboratory results published in article PMC4336329 (PLoS ONE, 2015).
# The whole screen tested about 310,000 compounds, of which about 14,000 (4.5%) showed an effect of 50% or more. Effects have a minus sign here. This is one part of the list.
# Target: human ether-à-go-go-related gene (hERG) potassium channel (human, UniProt Q12809)
# Experiment: primary screen, population patch clamp on CHO cells stably expressing hERG
# 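Further: peak tail current of the secondary pulse compared with the same well before compound.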
# Sequence of human ether-à-go-go-related gene (hERG) potassium channel (Q12809 whole entry, looked up): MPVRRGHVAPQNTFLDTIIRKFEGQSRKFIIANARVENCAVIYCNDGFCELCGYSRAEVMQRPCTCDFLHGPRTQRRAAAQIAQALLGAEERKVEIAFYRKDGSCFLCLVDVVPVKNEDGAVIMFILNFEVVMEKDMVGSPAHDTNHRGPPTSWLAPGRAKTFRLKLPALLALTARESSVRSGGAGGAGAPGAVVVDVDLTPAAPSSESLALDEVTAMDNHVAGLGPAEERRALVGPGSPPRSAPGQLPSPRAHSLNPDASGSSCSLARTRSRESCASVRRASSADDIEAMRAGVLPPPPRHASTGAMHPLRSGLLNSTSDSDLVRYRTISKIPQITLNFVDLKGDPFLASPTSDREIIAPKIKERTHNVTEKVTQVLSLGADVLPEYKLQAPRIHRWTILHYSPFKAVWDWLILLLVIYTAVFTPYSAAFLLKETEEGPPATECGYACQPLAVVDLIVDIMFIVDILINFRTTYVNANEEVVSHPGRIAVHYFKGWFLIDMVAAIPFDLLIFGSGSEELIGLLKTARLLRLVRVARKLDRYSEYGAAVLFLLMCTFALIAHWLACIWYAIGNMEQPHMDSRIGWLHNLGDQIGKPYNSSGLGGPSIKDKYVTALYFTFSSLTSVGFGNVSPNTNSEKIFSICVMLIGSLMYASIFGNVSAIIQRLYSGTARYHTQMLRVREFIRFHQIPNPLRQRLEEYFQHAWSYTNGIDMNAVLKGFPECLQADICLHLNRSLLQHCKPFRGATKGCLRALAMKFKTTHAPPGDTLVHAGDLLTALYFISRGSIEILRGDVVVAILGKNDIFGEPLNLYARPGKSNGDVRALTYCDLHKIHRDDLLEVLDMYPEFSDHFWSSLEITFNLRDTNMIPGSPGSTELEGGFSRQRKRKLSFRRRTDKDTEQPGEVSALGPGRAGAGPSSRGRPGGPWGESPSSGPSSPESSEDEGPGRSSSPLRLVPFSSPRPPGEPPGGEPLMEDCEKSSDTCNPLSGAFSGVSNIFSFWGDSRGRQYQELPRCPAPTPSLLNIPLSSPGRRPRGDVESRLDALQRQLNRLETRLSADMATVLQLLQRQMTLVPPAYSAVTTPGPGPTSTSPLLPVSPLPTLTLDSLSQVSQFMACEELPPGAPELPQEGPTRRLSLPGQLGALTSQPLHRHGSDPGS
row,SMILES,"hERG current change (%, negative = inhibition) at 10uM [%]"
1,CS(=O)(=O)N1CCN(c2ccc(NC(=O)CSc3ccc(Cl)cc3)cc2)CC1,-0.247
2,NC(=O)c1ccsc1NC(=O)c1cc(=O)c2ccccc2o1,-10.3
3,C/C=C/C=C/[C@H]1Cc2cc(O)cc(O)c2O1,7.73
4,CC(=O)N1N=C(c2cccc(NS(C)(=O)=O)c2)CC1c1cccs1 (stereo not shown),-4.95
5,Cc1sc2ncn(CC(=O)NCCCC(=O)N3CCN(c4ccccc4F)CC3)c(=O)c2c1C,-20.9
6,Cc1nc(-c2cnn(-c3ccccc3)c2)c2cc(C)oc2n1,8.66
7,CN1CCCc2cc(C=O)ccc21,13.2
8,O=C(CCNC(=O)C1CCN(S(=O)(=O)c2ccc(F)cc2)CC1)NCc1ccncc1,5.04
9,CCCOc1ccc(C2C(C(=O)c3ccc(C)o3)=C(O)C(=O)N2CCN2CCOCC2)cc1OC (stereo not shown),-2.09
10,CCCC(=O)O[C@]1(C(=O)COC(C)=O)CC[C@H]2[C@@H]3C[C@H](F)C4=CC(=O)C=C[C@]4(C)[C@@]3(F)[C@@H](O)C[C@@]21C,4.91
11,CCN(CC)S(=O)(=O)c1cccc(C(=O)NC(C(=O)Nc2nnc(C3CC3)s2)C(C)C)c1 (stereo not shown),-2.4
12,COc1ccc(C2=NN(Cc3ccccc3)C3C(=O)NC(=O)C23)cc1 (stereo not shown),-1.24
13,CCCCN(C(=O)C1CCN(C(=O)c2ccccc2C)CC1)c1c(N)n(CCCC)c(=O)[nH]c1=O,27
14,CC(C)[C@@H](N)C(=O)N/N=C/c1ccc2nccnc2c1.Cl,17.1
15,CC(=C1C(=O)c2ccccc2C1=O)N1CCN(CCN=Cc2c(O)n(C)c(=O)n(C)c2=O)CC1,-19
16,Oc1ccccc1/C=N/[n+]1ccccc1.[I-],12.7
17,CCOC(=O)c1ccc(NC(=S)N2CCN(C(=O)C3CCCO3)CC2)cc1 (stereo not shown),-0.604
18,COCCNC(=O)C(OC(=O)c1nsc(Cl)c1Cl)C(C)C (stereo not shown),10.8
19,COC(=O)c1sc2ncccc2c1OCc1ccccc1Cl,-20
20,c1coc(CNC2C3CC4CC(C3)CC2C4)c1 (stereo not shown),4.32
21,CNCc1ccccc1Sc1cc(O)ccc1O.O=C(O)/C=C\C(=O)O,-19.7
22,CCOc1ccccc1-c1nc(CN(Cc2cnn(C)c2)C(C)C)c(C)o1,-23.1

row,SMILES,"hERG current change (%, negative = inhibition) at 10uM [%]"
1,O=C(O)C1C2C=CC(C2)C1C(=O)NC(c1ccccc1)c1ccccc1 (stereo not shown),-16
2,O=C(O)/C=C/C(=O)NNc1ncnc2ccccc12,20.1
3,O=C(Nc1ccccc1N1CCCC1)C1CCN(C(=O)c2ccc(F)cc2)CC1,-27.8
4,C(=N\Nc1ccc2ccccc2n1)/c1ccc2c(c1)OCO2,-10.1
5,CCN(CC)c1ccc(NC(=O)CCS(=O)(=O)c2ccc(Br)cc2)c(C)c1,15.9
6,Nc1ccccc1SC1CC(=O)N(c2ccccc2Cl)C1=O (stereo not shown),14.9
7,COc1ccc2nc(C)cc(SCC(=O)N/N=C/c3ccc(O)cc3O)c2c1,2.34
8,COC(=O)C1=C(C)N(Cc2ccccc2)C(=S)N[C@H]1c1cccc(F)c1,-1.64
9,COc1ccc(CCNc2ncnc3sc(C)cc23)cc1OC.Cl,3.55
10,N#C/C(C(=O)Nc1ccc(Cl)cc1)=C(/S)Nc1ccccc1,26.4
11,CCNC(=S)N1CCN(C(=O)C(Cc2ccccc2)NC(C)=O)CC1 (stereo not shown),-1.07
12,O=C(c1cccnc1)N1CCc2ccccc2C1,2.28
13,CCC(NC(=O)c1cccc(Cn2cc([N+](=O)[O-])cn2)c1)c1ccc(C(C)C)cc1 (stereo not shown),1.16
14,CC(=O)c1ccc(S(=O)(=O)Nc2ccc(-c3ccc4nncn4n3)cc2)cc1,-15.6
15,CC(C)(C)CC(C)(C)N1CNC(=S)NC1,22.7
16,CC(=O)Nc1ccc(S(=O)(=O)NCCCCNS(=O)(=O)c2ccc(NC(C)=O)cc2)cc1,29
17,CC(C)(CN=C1NS(=O)(=O)c2ccccc21)CNC(=O)CN1C(=O)c2ccccc2C1=O,-2.48
18,Cc1cc(O)ccc1N=Cc1c(C(F)(F)F)[nH][nH]c1=O,6.09
19,O=C(/C=C/c1ccc(F)cc1)NC(=S)Nc1ccccc1,4.35
20,CC1CN(c2ccc(C(=O)c3ccccc3C(=O)O)cc2[N+](=O)[O-])CC(C)O1 (stereo not shown),11.6
21,CC(=O)c1ccc(N2CCN(CC(=O)N(CC(C)C)c3c(N)n(CC(C)C)c(=O)[nH]c3=O)CC2)cc1,10.7
